In PubChem BioAssay AID1508623 (National Center for Advancing Translational Sciences (NCATS), 2021):
Values joined by “and” are separate entries in the source; they are usually repeats but may differ in a detail not shown here. Equal entries are not always repeated. Among all 48,000 compounds or so, about 450 (0.94%) were called active. The shares of active, inactive and inconclusive entries below differ from those in the screen. The call rests on the fitted dose curve; in most records, active means well fitted inhibition curve with a large enough effect; inconclusive means small, poorly fitted or top-dose-only effect; inactive means no such curve, though single readings can be large or run the other way. Potencies of inconclusive entries are doubtful fits and often do not repeat.

Experiment: Primary qHTS for Identification of Small Molecule Inhibitors of Huntingtin Promoter Activity; further: nearly all actives have a fitted effect of over 50% in size
Conditions: HEK293 HTT promoter firefly luciferase reporter (activity 0% = vehicle and -100% = no light), 24 h; activity change, negative = inhibition: at 57.5 µM (top of the series)
Procedure, shortened: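 Luminescence was read after Dual-Glo reagent and a 10 min room-temperature incubation. Values were normalized to vehicle (0% activity) and zero RLU (-100% activity). Reporter HEK293 cells had been exposed to compounds (up to 57.5 uM final) for 24 h.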
Potency means the concentration at half of the fitted maximal effect; tags describe the fitted curve by direction and shape.

Potency, inconclusive:
CC(C)N1CCc2c(sc(NC(=O)c3ccc(S(=O)(=O)N(C)C4CCCCC4)cc3)c2C(N)=O)C1 20 µM [inhibitor, single point]
Cc1cc(N2CCN(c3ccccc3)CC2)n2cnnc2n1 28.2 µM [inhibitor, single point]
Cc1nc(-c2ccc(F)cc2)sc1CCNC(=O)c1ccc(OC(C)C)cc1 39.8 µM [inhibitor, partial curve, poor fit]
Cc1cc(C)cc(OCC(=O)N(Cc2ccc(Cl)cc2)C2CCS(=O)(=O)C2)c1 (centres undefined) 39.8 µM [inhibitor, single point]
COc1ccccc1CNC(=O)C1CCN(C2=NS(=O)(=O)C(c3ccc(C)c(C)c3)=C2C)CC1 28.2 µM [inhibitor, partial curve, poor fit]
Cc1c(Cl)cccc1NC(=O)CSc1nc(=O)[nH]c2c1CCCC2 39.8 µM [inhibitor, partial curve, poor fit]
O=C1CN(C(=O)c2ccc(S(=O)(=O)N3CCCCC3)cc2)C(c2ccc(F)cc2)c2cc(Cl)ccc2N1 (centres undefined) 22.4 µM [inhibitor, partial curve, poor fit]
CCN(CC)CCn1c(=N)n(CCOc2ccccc2Cl)c2ccccc21 35.5 µM [inhibitor, single point]
COc1ccc(-c2[nH]ncc2C(=O)NCc2cccc(Cl)c2)cc1 28.2 µM [inhibitor, single point]
Cc1ccc(-c2noc(CN(C3CCCCC3)S(=O)(=O)c3ccc(F)cc3)n2)cc1 39.8 µM [inhibitor, single point]
CC(C)c1ccc(NC(=O)CSC2=Nc3ccccc3C3=NC(CCC(=O)NCc4ccc(F)cc4)C(=O)N23)cc1 (centres undefined) 35.5 µM [inhibitor, partial curve, poor fit]
Cc1ccc(C)c(-c2ccc(=O)n(Cc3ccc(F)cc3Cl)n2)c1 39.8 µM [inhibitor, single point]
CCc1ccc(NC(=O)C2CCCN(S(=O)(=O)c3cccc4cccnc34)C2)cc1 (centres undefined) 39.8 µM [inhibitor, single point]
Cc1ccc(CNC(=O)c2sc3ncnc(N(C)C4CCCCC4)c3c2C)cc1 17.8 µM [inhibitor, partial curve, poor fit]
COc1cc(OC)c(OC)cc1CN1CCc2nc(N3CCN(c4ccccc4F)CC3)ncc2C1 6.31 µM [inhibitor, full curve]
Cc1ccc(OCC(=O)N(Cc2ccc(Cl)cc2)CC2CCCO2)cc1C (centres undefined) 39.8 µM [inhibitor, single point]
CN(C)N=Nc1nc[nH]c1C(N)=O 7.69 µM [inhibitor, partial curve]
O=C(Nc1ccc([N+](=O)[O-])cc1Cl)c1cc(Cl)ccc1O 17.8 µM [inhibitor, single point] and 21.7 µM [inhibitor, partial curve]
O=C(Nc1cccnc1)N1CCC(Cc2cccc(Oc3ccc(C(F)(F)F)cn3)c2)CC1 12.2 µM [inhibitor, partial curve]
CN(C)c1ccc(C2CC(c3c(O)n(C4CCCCC4)c(=O)[nH]c3=O)=Nc3ccccc3S2)cc1 (centres undefined) 2.82 µM [inhibitor, full curve]
CCOc1ccc(Cc2nccc3cc(OCC)c(OCC)cc23)cc1OCC 39.8 µM [inhibitor, single point]
CCOc1ccc(NC(=O)N(Cc2ccc(CC)cc2)Cc2cn[nH]c2-c2ccc(OC)cc2)cc1 22.4 µM [inhibitor, single point]
O=C(c1cn(CCOc2ccc(Cl)cc2)c2ccccc12)C1CCCCC1 25.1 µM [inhibitor, partial curve, poor fit]
CCN(CC)S(=O)(=O)c1ccc(C(=O)NCCSc2c(-c3ccc(OC)cc3)[nH]c3ccccc23)cc1 10 µM [inhibitor, full curve, poor fit]
Nc1c(C(=O)NCc2ccccc2)nnn1Cc1cccc(Br)c1 15.8 µM [inhibitor, partial curve]
CCOC(=O)c1cc(-c2ccc(F)cc2)n(CCC(=O)NC2CCCCC2)c1C 31.6 µM [inhibitor, partial curve, poor fit]
CCCCc1oc2ccccc2c1C(=O)c1cc(I)c(OCCN(CC)CC)c(I)c1 4.32 µM [inhibitor, full curve]
O=S(=O)(NCc1ccc(Cl)cc1)c1ccc(N2CCCCS2(=O)=O)cc1 14.1 µM [inhibitor, partial curve, poor fit]
COc1cccc(NC(=O)c2ccc(-c3nc(COc4ccc(C)cc4)c(C)o3)cc2)c1 5.62 µM [inhibitor, single point]

Potency, active:
COc1ccc(C2=C(C)C(=O)N(Cc3ccc(C(=O)Nc4ccc(F)cc4C)cc3)S2(=O)=O)cc1 10 µM
O=c1[nH]c2ccc(NCc3ccc(-c4ccccc4F)o3)cc2[nH]1 28.2 µM

Activity change, negative = inhibition, inactive:
CCCN1CCN(CCCNC(=O)c2ccc3c(c2)sc2nc(-c4ccc(OCC)cc4)cn23)CC1 -4.26%
CCOC(=O)C(=O)CCc1ccccc1 2.97%
COc1cc(C(=O)NCc2nnnn2-c2ccc(C)c(C)c2)cc(OC)c1OC 16.8%
COC(=O)c1ccc(CNC(=O)c2nc(Cn3nc(C)c(Br)c3C)no2)cc1 -11.9%
COc1ccc(C2C=C(c3ccccc3)Nc3nc(NS(=O)(=O)c4ccc(C)cc4)nn32)cc1 (centres undefined) -2.85%
Cc1cc(N2CCN(c3cccc(C(F)(F)F)c3)CC2)n2nc(-c3ccccc3C)nc2n1 -14.8%
CCOC(=O)C1CCN(C(c2ccc(F)cc2)c2sc3nc(-c4ccco4)nn3c2O)CC1 (centres undefined) 18.8%
CCOC(=O)c1cccc(NC(=O)c2cc3cc4ccc(C)cc4nc3s2)c1 9.36%
